# In PubChem BioAssay AID651820 (National Center for Advancing Translational Sciences (NCATS), 2012):
# Out of some 340,000 compounds screened, about 12,000 (3.5%) were called active. This list was built around the results that the source calls inconclusive (neither active nor inactive); the mix of calls is not that of the screen. The call rests on the fitted dose curve; in most records, active means well fitted inhibition curve with a large enough effect; inconclusive means small, poorly fitted or top-dose-only effect, or another doubt; inactive means no such curve, though single readings can be large or run the other way. Potencies of inconclusive entries are left out as doubtful fits.
# Test: qHTS Assay for Inhibitors of Hepatitis C Virus (HCV)
# Details: Huh7.5.1 HCVcc-Cre (HCVcc is cell-culture hepatitis C virus) infection, luciferase reporter, 44 h; activity change, negative = inhibition: at 41.8 µM (top of the series)
# Method in brief: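 Reporter virus HCVcc-Cre (~0.5 moi) infects cells exposed to compound; seeding density 1,000 cells/well with 4 h settling beforehand. Luminescence, 15 sec read, taken 44 h post-infection following a 15 min RT substrate incubation.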
# On the % scale 0 is the no-effect control and ±100 the full control effect; potency means the concentration at half of the fitted maximal effect; tags describe the fitted curve by direction and shape.
Structure (SMILES),Potency,"activity change, negative = inhibition"
Cc1cc(Oc2ccccc2)nc(-c2ccccc2O)n1,"inconclusive [inhibitor, single point]",–
COc1ccc2c(c1)oc(=O)c1ccccc12,"inconclusive [inhibitor, partial curve]",–
COc1ccc(CCNC(=O)C/C(C)=N/NC(=O)c2ccc(N)cc2)cc1OC,"inconclusive [inhibitor, partial curve]",–
CCc1nc(N2CCCCC2C)c2oc3ccccc3c2n1 (stereo not drawn),"inconclusive [inhibitor, partial curve]",–
CC(=O)c1cccc(NC(=O)CCS(=O)(=O)c2ccc(Br)s2)c1,–,inactive: -3.88%
N#CC1=C(SCC(=O)c2ccccc2)NC2=C(C(=O)CCC2)C1c1ccco1 (stereo not drawn),active: 11.2 µM,–
O=C(NC1CCS(=O)(=O)C1)Oc1ccc(Cl)cc1 (stereo not drawn),–,inactive: 16.1%
Cc1cccc(N2CCN(C(=O)c3c(Cl)cnn3C)CC2)c1C,"inconclusive [inhibitor, single point]",–
C(=N\Nc1nc(-c2ccccc2)cs1)/c1cccs1,active: 10 µM,–
Cc1cc(Nc2ccc(F)c(F)c2)nc(-c2ccccc2O)n1,"inconclusive [inhibitor, full curve]",–
COc1ccc(NC(=O)C2CCC2)cc1S(=O)(=O)Nc1cc(C)ccc1Br,"inconclusive [inhibitor, single point]",–
COc1ccc(/C=C/C(=O)c2ccc3c4c(cccc24)CC3)cc1,"inconclusive [inhibitor, single point]",–
CC/C(=N/Nc1ccccc1C)c1cnnc(SC)n1,–,inactive: 15.8%
Cc1oc(-c2ccccc2)nc1CN1C(=O)C(C)N=C(c2ccccc2F)c2cc(Cl)ccc21 (stereo not drawn),"inconclusive [inhibitor, single point]",–
NS(=O)(=O)c1cccc(NC(=O)CC23CC4CC(C2)CC(CC(=O)Nc2cccc(S(N)(=O)=O)c2)(C4)C3)c1,–,inactive: 7.79%
COc1ccc(C2=NN(CN3C(=O)C(=O)c4ccccc43)C(c3ccc(OC)cc3)C2)cc1 (stereo not drawn),"inconclusive [inhibitor, single point]",–
COc1ccc(NC(=S)N(CCc2c(C)[nH]c3ccc(C)cc23)Cc2ccco2)cc1,"inconclusive [inhibitor, single point]",–
Cc1cc(C)nc(SCCS(=O)Cc2ccc(Cl)cc2)n1 (stereo not drawn),"inconclusive [inhibitor, single point]",–
Cc1ccc(C(c2nnnn2Cc2ccccc2)N2CC=C(c3ccc(F)cc3)CC2)cc1 (stereo not drawn),–,inactive: -2.63%

Structure (SMILES),Potency,"activity change, negative = inhibition"
O=c1cc(-c2ccc(O)cc2)oc2cc(O)c(C3OC(CO)C(O)C(O)C3O)c(O)c12 (stereo not drawn),–,inactive: 27.1%
O=C(COc1nc2ccccc2nc1N1CCOCC1)Nc1cccc(S(=O)(=O)N2CCCCC2)c1,"inconclusive [inhibitor, single point]",–
CCOc1cc(CNCCO)cc(Br)c1OCc1ccccc1Cl,active: 8.91 µM,–
COc1cc(CNCCSc2nnnn2C)cc(Br)c1OCc1ccccc1F,"inconclusive [inhibitor, single point]",–
COc1ccc(S(=O)(=O)N2CCOCC2)cc1NC(=O)Cc1coc2cc(C)c(C)cc12,–,inactive: -14.4%
COc1ccc(N2C(=O)CC(Cc3ccccc3)C2=O)cc1 (stereo not drawn),–,inactive: 6.75%
Cc1oc(-c2ccccc2)cc1C(=O)NC(Cc1c[nH]c2ccccc12)C(=O)O (stereo not drawn),–,inactive: 4.49%
COc1ccc(C2CC(c3ccc(Br)cc3)=NN2C(=O)c2cccnc2)cc1 (stereo not drawn),"inconclusive [inhibitor, partial curve]",–
c1ccc(C2Nc3ccccc3Oc3ccccc32)cc1 (stereo not drawn),"inconclusive [inhibitor, single point]",–
Cc1ccc(C(=O)Nc2ccnc(-c3cccnc3)n2)cc1,"inconclusive [inhibitor, partial curve]",–
Cc1cccc(Cn2c(-c3ccc[nH]c3=O)nc3ccccc32)c1,–,inactive: 9.9%
CCOC(=O)c1c(NC(=O)CSc2nnc(C)s2)sc2c1CCC(C)C2 (stereo not drawn),active: 11.2 µM,–
O=C(NCCCn1ccnc1)c1ccccc1Cl,–,inactive: 15.7%
CCOC(=O)c1c(-c2ccc(OC)cc2)csc1NC(=O)CSc1ncnc2sccc12,"inconclusive [inhibitor, partial curve]",–
COc1ccc2cc(/C=C3\SC(=S)NC3=O)c(N3CCOCC3)nc2c1,"inconclusive [inhibitor, single point]",–
CC(=O)Nc1ccc(S(=O)(=O)N2CCCc3ccccc32)cc1,active: 12.6 µM,–
COc1ccc(-c2csc(N3N=C(C)C(C)C3=O)n2)cc1 (stereo not drawn),–,inactive: -13.6%
CCN(CC)S(=O)(=O)c1ccc(N2CCCCC2)c(NC(=O)C2=COCCO2)c1,"inconclusive [inhibitor, partial curve]",–
Cc1ccc(S(=O)(=O)Nc2cccc(-c3ccc4nncn4n3)c2)cc1,"inconclusive [inhibitor, full curve, poor fit]",–
